According to the supplement of paper PMC8728848:
Some of the results follow.

Tests used:
Assay in all cases: glycan array binding signal (z-score within array); higher = stronger binding
Conditions in all cases: glycan notation: IUPAC condensed, linker removed
[1] = molecular target: GlcNAc(a1-6)Gal(b1-4)GlcNAc
How it was run: (§1)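 Negative Z-scores can be read as non-binding. The Z-score is calculated within each array and then averaged across arrays of one protein sequence at different concentrations or buffers and across linkers. Arrays, 3228 in all, were curated from the Consortium for Functional Glycomics database and kept only where the protein sequence was available.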

[2] = molecular target: GlcNAc(b1-2)Gal(b1-3)GalNAc
How it was run: as §1

[3] = molecular target: GlcNAc(b1-2)Man(a1-3)[GlcNAc(b1-2)Man(a1-6)]Man(b1-4)GlcNAc(b1-4)GlcNAc
How it was run: as §1

[4] = molecular target: GlcNAc(b1-2)Man(a1-3)[GlcNAc(b1-2)Man(a1-6)]Man(b1-4)GlcNAc(b1-4)[Fuc(a1-6)]GlcNAc
How it was run: as §1

[5] = molecular target: GlcNAc(b1-2)Man(a1-3)[GlcNAc(b1-4)][GlcNAc(b1-2)Man(a1-6)]Man(b1-4)GlcNAc(b1-4)GlcNAc
How it was run: as §1

[6] = molecular target: GlcNAc(b1-2)Man(a1-3)[GlcNAc(b1-4)][GlcNAc(b1-2)Man(a1-6)]Man(b1-4)GlcNAc(b1-4)[Fuc(a1-6)]GlcNAc
How it was run: as §1

[7] = molecular target: GlcNAc(b1-2)[GlcNAc(b1-4)]Man(a1-3)[GlcNAc(b1-2)Man(a1-6)]Man(b1-4)GlcNAc(b1-4)GlcNAc
How it was run: as §1

[8] = molecular target: GlcNAc(b1-2)[GlcNAc(b1-4)]Man(a1-3)[GlcNAc(b1-4)][GlcNAc(b1-2)Man(a1-6)]Man(b1-4)GlcNAc(b1-4)GlcNAc
How it was run: as §1

[9] = molecular target: GlcNAc(b1-2)[GlcNAc(b1-4)]Man(a1-3)[GlcNAc(b1-4)][GlcNAc(b1-2)[GlcNAc(b1-6)]Man(a1-6)]Man(b1-4)GlcNAc(b1-4)GlcNAc
How it was run: as §1

[10] = molecular target: GlcNAc(b1-2)[GlcNAc(b1-4)]Man(a1-3)[GlcNAc(b1-4)][GlcNAc(b1-2)[GlcNAc(b1-6)]Man(a1-6)]Man(b1-4)GlcNAc(b1-4)[Fuc(a1-6)]GlcNAc
How it was run: as §1

[11] = molecular target: GlcNAc(b1-2)[GlcNAc(b1-6)]Man(a1-6)[GlcNAc(b1-2)Man(a1-3)]Man(b1-4)GlcNAc(b1-4)GlcNAc
How it was run: as §1

[12] = molecular target: GlcNAc(b1-2)[GlcNAc(b1-6)]Man(a1-6)[GlcNAc(b1-2)Man(a1-3)]Man(b1-4)GlcNAc(b1-4)[Fuc(a1-6)]GlcNAc
How it was run: as §1

[13] = molecular target: GlcNAc(b1-2)[GlcNAc(b1-6)]Man(a1-6)[GlcNAc(b1-4)][GlcNAc(b1-2)Man(a1-3)]Man(b1-4)GlcNAc(b1-4)GlcNAc
How it was run: as §1

GlcNAc(b1-3)Fuc = molecular target: GlcNAc(b1-3)Fuc
How it was run: as §1

GlcNAc(b1-3)Gal = molecular target: GlcNAc(b1-3)Gal
How it was run: as §1

[14] = molecular target: GlcNAc(b1-3)Gal(b1-3)GalNAc
How it was run: as §1

GlcNAc(b1-3)Gal(b1-4)Glc = molecular target: GlcNAc(b1-3)Gal(b1-4)Glc
How it was run: as §1

[15] = molecular target: GlcNAc(b1-3)Gal(b1-4)GlcNAc
How it was run: as §1

[16] = molecular target: GlcNAc(b1-3)Gal(b1-4)GlcNAc(b1-2)Man(a1-3)[GlcNAc(b1-3)Gal(b1-4)GlcNAc(b1-2)Man(a1-6)]Man(b1-4)GlcNAc(b1-4)GlcNAc
How it was run: as §1

[17] = molecular target: GlcNAc(b1-3)Gal(b1-4)GlcNAc(b1-2)Man(a1-3)[GlcNAc(b1-3)Gal(b1-4)GlcNAc(b1-2)Man(a1-6)]Man(b1-4)GlcNAc(b1-4)[Fuc(a1-6)]GlcNAc
How it was run: as §1

[18] = molecular target: GlcNAc(b1-3)Gal(b1-4)GlcNAc(b1-2)[GlcNAc(b1-3)Gal(b1-4)GlcNAc(b1-6)]Man(a1-6)[GlcNAc(b1-3)Gal(b1-4)GlcNAc(b1-2)Man(a1-3)]Man(b1-4)GlcNAc(b1-4)GlcNAc
How it was run: as §1

[19] = molecular target: GlcNAc(b1-3)Gal(b1-4)GlcNAc(b1-3)Gal(b1-4)GlcNAc
How it was run: as §1

[20] = molecular target: GlcNAc(b1-3)Gal(b1-4)GlcNAc(b1-3)Gal(b1-4)GlcNAc(b1-2)Man(a1-3)[GlcNAc(b1-3)Gal(b1-4)GlcNAc(b1-3)Gal(b1-4)GlcNAc(b1-2)Man(a1-6)]Man(b1-4)GlcNAc(b1-4)GlcNAc
How it was run: as §1

[21] = molecular target: GlcNAc(b1-3)Gal(b1-4)GlcNAc(b1-3)Gal(b1-4)GlcNAc(b1-2)Man(a1-3)[GlcNAc(b1-3)Gal(b1-4)GlcNAc(b1-3)Gal(b1-4)GlcNAc(b1-2)Man(a1-6)]Man(b1-4)GlcNAc(b1-4)[Fuc(a1-6)]GlcNAc
How it was run: as §1

[22] = molecular target: GlcNAc(b1-3)Gal(b1-4)GlcNAc(b1-3)Gal(b1-4)GlcNAc(b1-2)[GlcNAc(b1-3)Gal(b1-4)GlcNAc(b1-3)Gal(b1-4)GlcNAc(b1-6)]Man(a1-6)[GlcNAc(b1-3)Gal(b1-4)GlcNAc(b1-3)Gal(b1-4)GlcNAc(b1-2)Man(a1-3)]Man(b1-4)GlcNAc(b1-4)[Fuc(a1-6)]GlcNAc
How it was run: as §1

[23] = molecular target: GlcNAc(b1-3)Gal(b1-4)GlcNAc(b1-3)Gal(b1-4)GlcNAc(b1-3)Gal(b1-4)GlcNAc(b1-2)Man(a1-3)[GlcNAc(b1-3)Gal(b1-4)GlcNAc(b1-3)Gal(b1-4)GlcNAc(b1-3)Gal(b1-4)GlcNAc(b1-2)Man(a1-6)]Man(b1-4)GlcNAc(b1-4)GlcNAc
How it was run: as §1

[24] = molecular target: GlcNAc(b1-3)Gal(b1-4)GlcNAc(b1-3)Gal(b1-4)GlcNAc(b1-3)Gal(b1-4)GlcNAc(b1-2)Man(a1-3)[GlcNAc(b1-3)Gal(b1-4)GlcNAc(b1-3)Gal(b1-4)GlcNAc(b1-3)Gal(b1-4)GlcNAc(b1-2)Man(a1-6)]Man(b1-4)GlcNAc(b1-4)[Fuc(a1-6)]GlcNAc
How it was run: as §1

[25] = molecular target: GlcNAc(b1-3)Gal(b1-4)GlcNAc(b1-3)Gal(b1-4)GlcNAc(b1-3)Gal(b1-4)GlcNAc(b1-2)[GlcNAc(b1-3)Gal(b1-4)GlcNAc(b1-3)Gal(b1-4)GlcNAc(b1-3)Gal(b1-4)GlcNAc(b1-6)]Man(a1-6)[GlcNAc(b1-3)Gal(b1-4)GlcNAc(b1-3)Gal(b1-4)GlcNAc(b1-3)Gal(b1-4)GlcNAc(b1-2)Man(a1-3)]Man(b1-4)GlcNAc(b1-4)[Fuc(a1-6)]GlcNAc
How it was run: as §1

[26] = molecular target: GlcNAc(b1-3)Gal(b1-4)GlcNAc(b1-3)Gal(b1-4)GlcNAc(b1-3)Gal(b1-4)GlcNAc(b1-3)Gal(b1-4)GlcNAc(b1-2)Man(a1-3)[GlcNAc(b1-3)Gal(b1-4)GlcNAc(b1-3)Gal(b1-4)GlcNAc(b1-3)Gal(b1-4)GlcNAc(b1-3)Gal(b1-4)GlcNAc(b1-2)Man(a1-6)]Man(b1-4)GlcNAc(b1-4)GlcNAc
How it was run: as §1

[27] = molecular target: GlcNAc(b1-3)Gal(b1-4)GlcNAc(b1-3)Gal(b1-4)GlcNAc(b1-3)Gal(b1-4)GlcNAc(b1-3)Gal(b1-4)GlcNAc(b1-2)Man(a1-3)[GlcNAc(b1-3)Gal(b1-4)GlcNAc(b1-3)Gal(b1-4)GlcNAc(b1-3)Gal(b1-4)GlcNAc(b1-3)Gal(b1-4)GlcNAc(b1-2)Man(a1-6)]Man(b1-4)GlcNAc(b1-4)[Fuc(a1-6)]GlcNAc
How it was run: as §1

[28] = molecular target: GlcNAc(b1-3)Gal(b1-4)GlcNAc(b1-3)Gal(b1-4)GlcNAc(b1-3)Gal(b1-4)GlcNAc(b1-3)Gal(b1-4)GlcNAc(b1-2)[GlcNAc(b1-3)Gal(b1-4)GlcNAc(b1-3)Gal(b1-4)GlcNAc(b1-3)Gal(b1-4)GlcNAc(b1-3)Gal(b1-4)GlcNAc(b1-6)]Man(a1-6)[GlcNAc(b1-3)Gal(b1-4)GlcNAc(b1-3)Gal(b1-4)GlcNAc(b1-3)Gal(b1-4)GlcNAc(b1-3)Gal(b1-4)GlcNAc(b1-2)Man(a1-3)]Man(b1-4)GlcNAc(b1-4)[Fuc(a1-6)]GlcNAc
How it was run: as §1

[29] = molecular target: GlcNAc(b1-3)Gal(b1-4)GlcNAc(b1-3)Gal(b1-4)GlcNAc(b1-3)GalNAc
How it was run: as §1

[30] = molecular target: GlcNAc(b1-3)Gal(b1-4)GlcNAc(b1-3)GalNAc
How it was run: as §1

[31] = molecular target: GlcNAc(b1-3)Gal(b1-4)GlcNAc(b1-3)[GlcNAc(b1-3)Gal(b1-4)GlcNAc(b1-3)]GalNAc
How it was run: as §1

[32] = molecular target: GlcNAc(b1-3)Gal(b1-4)GlcNAc(b1-6)[Gal(b1-3)]GalNAc
How it was run: as §1

[33] = molecular target: GlcNAc(b1-3)Gal(b1-4)GlcNAc(b1-6)[GlcNAc(b1-3)Gal(b1-3)]GalNAc
How it was run: as §1

[34] = molecular target: GlcNAc(b1-3)Gal(b1-4)GlcNAc(b1-6)[GlcNAc(b1-3)]Gal(b1-4)GlcNAc
How it was run: as §1

GlcNAc(b1-3)GalNAc = molecular target: GlcNAc(b1-3)GalNAc
How it was run: as §1

GlcNAc(b1-3)Man = molecular target: GlcNAc(b1-3)Man
How it was run: as §1

[35] = molecular target: GlcNAc(b1-3)[GlcNAc(b1-4)][GlcNAc(b1-6)]GlcNAc
How it was run: as §1

[36] = molecular target: GlcNAc(b1-3)[GlcNAc(b1-6)]Gal(b1-4)GlcNAc
How it was run: as §1

[37] = molecular target: GlcNAc(b1-3)[GlcNAc(b1-6)]GalNAc
How it was run: as §1

[38] = molecular target: GlcNAc(b1-4)Gal(b1-4)GlcNAc
How it was run: as §1

GlcNAc(b1-4)GlcNAc = molecular target: GlcNAc(b1-4)GlcNAc
How it was run: as §1

[39] = molecular target: GlcNAc(b1-4)GlcNAc(b1-4)GlcNAc
How it was run: as §1

B1: SSR1 (Sclerotium rolfsii), A0A0M3KL30 (protein)
chain: TYKITVRVYQTNPDAFFHPVEKTVWKYANGGTWTITDDQHVLTMGGSGTSGTLRFHADNGESFTATFGVHNYKRWCDIVTNLAADETGMVINQQYYSQKNREEARERQLSNYQVKNAKGRNFQIVYTEAEGNDLHANLIIG
glycan array binding signal (z-score) [1]: 1.09 | glycan array binding signal (z-score) [2]: -0.263 | glycan array binding signal (z-score) [3]: 5.28 | glycan array binding signal (z-score) [4]: 2.64 | glycan array binding signal (z-score) [5]: 2.81 | glycan array binding signal (z-score) [6]: 2.76 | glycan array binding signal (z-score) [7]: 3.04 | glycan array binding signal (z-score) [8]: 1.2 | glycan array binding signal (z-score) [9]: 0.675 | glycan array binding signal (z-score) [10]: 0.52 | glycan array binding signal (z-score) [11]: 3.93 | glycan array binding signal (z-score) [12]: 3.66 | glycan array binding signal (z-score) [13]: 1.41 | glycan array binding signal (z-score) (GlcNAc(b1-3)Fuc): 0.263 | glycan array binding signal (z-score) (GlcNAc(b1-3)Gal): -0.195 | glycan array binding signal (z-score) [14]: 1.72 | glycan array binding signal (z-score) (GlcNAc(b1-3)Gal(b1-4)Glc): 0.335 | glycan array binding signal (z-score) [15]: 1.27 | glycan array binding signal (z-score) [16]: 1.04 | glycan array binding signal (z-score) [17]: 1.17 | glycan array binding signal (z-score) [18]: 1.32 | glycan array binding signal (z-score) [19]: 1.13 | glycan array binding signal (z-score) [20]: 0.723 | glycan array binding signal (z-score) [21]: 1.07 | glycan array binding signal (z-score) [22]: 0.914 | glycan array binding signal (z-score) [23]: 0.934 | glycan array binding signal (z-score) [24]: 0.966 | glycan array binding signal (z-score) [25]: 1.16 | glycan array binding signal (z-score) [26]: 1.22 | glycan array binding signal (z-score) [27]: 1.37 | glycan array binding signal (z-score) [28]: 1.32 | glycan array binding signal (z-score) [29]: 0.907 | glycan array binding signal (z-score) [30]: 0.711 | glycan array binding signal (z-score) [31]: 0.961 | glycan array binding signal (z-score) [32]: 0.938 | glycan array binding signal (z-score) [33]: 0.871 | glycan array binding signal (z-score) [34]: 0.953 | glycan array binding signal (z-score) (GlcNAc(b1-3)GalNAc): 0.954 | glycan array binding signal (z-score) (GlcNAc(b1-3)Man): 0.691 | glycan array binding signal (z-score) [35]: 0.004 | glycan array binding signal (z-score) [36]: 1.1 | glycan array binding signal (z-score) [37]: 0.204 | glycan array binding signal (z-score) [38]: -0.333 | glycan array binding signal (z-score) (GlcNAc(b1-4)GlcNAc): 0.653 | glycan array binding signal (z-score) [39]: 1.08
